Source: PubChem BioAssay (NCI)
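A five-concentration, 48-hour dose response in 96-well plates underlies each endpoint, interpolated linearly between surrounding concentrations. GI50 marks 50% less growth. TGI marks complete inhibition of growth.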

test system: NCI-H322M lung; assay: NCI-60 cell line screen, 48 h

Row | Structure (SMILES) | TGI | GI50
1 | O=C(O)C(Cc1c[nH]c2ccccc12)C(=O)NO (centres undefined) | > 100 µM | –
2 | c1ccc2cc(CN3CCC(C4CCN(Cc5ccc6ccccc6c5)CC4)CC3)ccc2c1 | 19.4 µM | –
3 | CCOP(=O)(OCC)/C(C#N)=C/c1cnc(C)[nH]1 | > 100 µM | –
4 | O=C(OCCN1CCCCCC1)C(c1ccsc1)C1CCCCC1 (centres undefined) | 41 µM | –
5 | CN(C(=O)c1ccccc1)C1CCCC(=O)CC1 (centres undefined) | > 100 µM | –
6 | COC(=O)C(N)CSC(c1ccccc1)(c1ccccc1)c1ccccc1 (centres undefined) | > 100 µM | 0.695 µM
7 | Cc1cc(C)c(OC(=O)Nc2cccc3ccccc23)c(-c2ccccc2)c1 | > 100 µM | –
8 | Cc1cccc(C)c1NC(=O)/C(Cc1nc2ccc([N+](=O)[O-])cc2[nH]c1=O)=N\NC(N)=O | > 100 µM | –
9 | CCCCCCC[C@@H](O)CC(=O)NC(CC(C)C)C(=O)NC(CCC(=O)O)C(=O)NC1C(=O)NC(C(C)C)C(=O)NC(CC(C)C)C(=O)NC(CO)C(=O)NC(CC(C)C)C(=O)NC(CO)C(=O)NC(C(C)CC)C(=O)OC1C (some centres undefined) | 27.3 µM | –
10 | CN(C)CCCN1c2ccccc2CCc2cccc([N+](=O)[O-])c21 | 63.8 µM | –
11 | COc1ccc(CCn2nccc2C)cc1 | > 100 µM | –
12 | CC(C)(N=NC(C)(C)C(=N)N)C(=N)N | > 100 µM | –
13 | COC(=O)C1CC2C=CC1N(C(=O)OCc1ccccc1)C2 (centres undefined) | > 100 µM | –
14 | Cc1cc(-c2no[n+]([O-])c2-c2cc(C)sc2S(C)(=O)=O)c(S(C)(=O)=O)s1 | > 100 µM | –
15 | N=C(N)SCCc1ccncc1 | > 100 µM | –
16 | CCC12CCCN(Cc3ccccc3)C1c1c(n(C)c3ccccc13)[C@H](C(=O)OC)C2 (some centres undefined) | > 239 µM | –
17 | CC(=O)c1cc2c(c(O)c1C)C(=O)C(=O)c1c(O)cccc1-2 | 0.849 µM | 0.43 µM
18 | C[N+](C)=C/C=C(\Cl)c1ccc2ccccc2c1 | 33.5 µM | –
19 | NC(CSS(=O)(=O)c1ccccc1)C(=O)O (centres undefined) | > 10 µM | –
20 | O[N+]1=CC=CCC1=S.On1ccccc1=S.[Zn] | 3.11 µM | 1.51 µM
21 | CCOc1cc2c[n+](C)c3c4cc(OC)c(OC)cc4ccc3c2cc1OC | > 100 µM | –
22 | O=C1c2ccccc2CCC1C(O)(C(F)(F)F)C(F)(F)F (centres undefined) | > 100 µM | –

Row | Structure (SMILES) | TGI | GI50
23 | CC(=O)[CH-]C(C)=O.CC(=O)[CH-]C(C)=O.[CH2-]CCCCCCC.[CH2-]CCCCCCC.[Sn+4] | 52.3 µM | 21.2 µM
24 | COC(=O)[C@@H](C[C@H](Cc1ccccc1)NC(=O)c1csc([C@@H](C[C@H](C(C)C)N(C)C(=O)[C@@H](NC(=O)[C@H]2CCCCN2C)C(C)C)OC(C)=O)n1)NC(=O)OCc1ccccc1 | > 8.33 µM | 0.00212 µM
25 | CC1=C(C(=O)CC(=O)C(=O)Nc2ccccc2C(F)(F)F)Sc2ccccc2N1 | > 100 µM | –
26 | c1ccc([P+](CCN2Cc3ccccc3C2)(c2ccccc2)c2ccccc2)cc1 | 79.7 µM | –
27 | CNC(=O)N(C1=NCC(C)S1)c1ccc(C)c(C)c1 (centres undefined) | > 100 µM | –
28 | CC(=O)OCC1OC(n2c(-c3cccs3)c3c(c(C#N)c2=S)-c2ccccc2CC3)C(OC(C)=O)C(OC(C)=O)C1OC(C)=O (centres undefined) | > 100 µM | –
29 | O=C(O)c1cc(-c2ccc3c(O)ccc(O)c3c2)ccc1O | > 100 µM | –
30 | NC(=O)c1cccc(N2Cc3ccccc3OC3=C2C(=O)c2c(O)ccc(O)c2C3=O)c1 | 10.3 µM | 2.83 µM
31 | N#CC(=N)c1ncn(CCO)c1NC(=O)C(F)(F)F | > 100 µM | –
32 | C=CC(=O)NC(O)(C(=O)OCC)C(F)(F)F (centres undefined) | > 100 µM | –
33 | Cc1ccc(-c2cc(C(=O)N3N=C(c4ccc(N)cc4)CC3c3ccc(Cl)cc3)c3ccccc3n2)cc1 (centres undefined) | > 100 µM | 4.73 µM
34 | C=CCC12CC(=O)CCC1CC(=O)C2 (centres undefined) | > 100 µM | –
35 | CC(C)(C)OC(=O)N1CCCC1=O | > 10 µM | –
36 | COc1c2c(cc3nc4ccccc4nc13)CC[C@H](NC(C)=O)c1cc(=O)c(SC)ccc1-2 | > 100 µM | –
37 | O=C(O)C1CCCN1C(=O)c1cc(Cl)ccn1 (centres undefined) | > 100 µM | –
38 | Cn1cc(C2=C(c3cn(CCCO)c4ccccc34)C(=O)NC2=O)c2ccccc21 | 16.7 µM | 3.8 µM
39 | Cc1noc(C)c1C1=CCCCc2ccccc21 | > 100 µM | –
40 | O=c1c2cccnc2[nH]c2ccc3[nH]ncc3c12 | > 10 µM | –
41 | O=C1c2ccccc2C(=O)c2c(N=Nc3[nH]c(=S)[nH]c3O)cccc21 | > 100 µM | 1.18 µM
42 | COc1ccc(C(=O)/C=C2\C(=O)Nc3ccc(Br)cc32)cc1 | 32.4 µM | –
43 | Cc1nc2cc(-n3c(-c4ccc(F)cc4)nc4ccccc4c3=O)ccc2n1Cc1ccccc1 | 24.8 µM | 4.89 µM
44 | Cc1ccc2c(c1)C(=O)c1[nH]c3ccc(F)cc3c1CO2 | > 100 µM | –
